# Experimental data as given in the supplement of paper PMC8728848.
# The list shows a part of the results.
# Assays:
# Test in all cases: glycan array binding signal (z-score within array); higher = stronger binding
# Settings in all cases: glycan notation: IUPAC condensed, linker removed
# [1] = target: Gal3S(b1-4)[Fuc(a1-3)]Glc
# Method in brief: (§1)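 Arrays were curated from the Consortium for Functional Glycomics database, 3228 in total, and kept only where the protein sequence was available. Binding is expressed as a within-array Z-score. This score was averaged across arrays of the same protein sequence at different concentrations or buffers and across linkers, and negative values can be read as non-binding.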
# [2] = target: Gal3S(b1-4)[Fuc(a1-3)]Glc6S
# Method in brief: as §1
# [3] = target: Gal3S4S(b1-4)GlcNAc
# Method in brief: as §1
# [4] = target: Gal3S6S(b1-4)GlcNAc
# Method in brief: as §1
# [5] = target: Gal3S6S(b1-4)GlcNAc6S
# Method in brief: as §1
# [6] = target: Gal4S(b1-4)GlcNAc
# Method in brief: as §1
# [7] = target: Gal4S6S(b1-4)GlcNAc
# Method in brief: as §1
# [8] = target: Gal6S(b1-4)Glc
# Method in brief: as §1
# [9] = target: Gal6S(b1-4)Glc6S
# Method in brief: as §1
# [10] = target: Gal6S(b1-4)GlcNAc
# Method in brief: as §1
# [11] = target: Gal6S(b1-4)GlcNAc6S
# Method in brief: as §1
# [12] = target: GalNAc(a1-3)Gal
# Method in brief: as §1
# [13] = target: GalNAc(a1-3)GalNAc
# Method in brief: as §1
# [14] = target: GalNAc(a1-3)GalNAc(a1-3)Gal(a1-4)Gal(b1-4)GlcNAc
# Method in brief: as §1
# [15] = target: GalNAc(b1-3)Gal
# Method in brief: as §1
# [16] = target: GalNAc(b1-3)Gal(a1-4)Gal(b1-4)GlcNAc
# Method in brief: as §1
# [17] = target: GalNAc(b1-3)Gal(a1-4)Gal(b1-4)GlcNAc(b1-3)Gal(b1-4)Glc
# Method in brief: as §1
# [18] = target: GalNAc(b1-3)Gal(a1-6)Gal(b1-4)Glc
# Method in brief: as §1
# [19] = target: GalNAc(b1-3)GalNAc
# Method in brief: as §1
# [20] = target: GalNAc(b1-4)GlcNAc
# Method in brief: as §1
# [21] = target: GalNAc(b1-4)GlcNAc(b1-2)Man(a1-3)[GalNAc(b1-4)GlcNAc(b1-2)Man(a1-6)]Man(b1-4)GlcNAc(b1-4)GlcNAc
# Method in brief: as §1
# [22] = target: Glc(a1-4)Glc
# Method in brief: as §1
# [23] = target: Glc(a1-6)Glc(a1-6)Glc
# Method in brief: as §1
# [24] = target: Glc(b1-4)Glc
# Method in brief: as §1
# [25] = target: Glc(b1-6)Glc
# Method in brief: as §1
# [26] = target: GlcA(b1-3)Gal
# Method in brief: as §1
# [27] = target: GlcA(b1-3)GlcNAc
# Method in brief: as §1
# [28] = target: GlcA(b1-6)Gal
# Method in brief: as §1
# [29] = target: GlcNAc(a1-3)Gal(b1-4)GlcNAc
# Method in brief: as §1
# [30] = target: GlcNAc(a1-4)Gal(b1-3)GlcNAc
# Method in brief: as §1
# [31] = target: GlcNAc(a1-4)Gal(b1-4)GalNAc
# Method in brief: as §1
# [32] = target: GlcNAc(a1-4)Gal(b1-4)GlcNAc
# Method in brief: as §1
# [33] = target: GlcNAc(a1-4)Gal(b1-4)GlcNAc(b1-3)Gal(b1-4)Glc
# Method in brief: as §1
# [34] = target: GlcNAc(a1-4)Gal(b1-4)GlcNAc(b1-3)Gal(b1-4)GlcNAc
# Method in brief: as §1
# [35] = target: GlcNAc(a1-4)Gal(b1-4)GlcNAc(b1-3)Gal(b1-4)GlcNAc(b1-3)Gal(b1-4)GlcNAc
# Method in brief: as §1
# [36] = target: GlcNAc(a1-4)Gal(b1-4)GlcNAc(b1-3)Gal(b1-4)[Fuc(a1-3)]GlcNAc(b1-3)Gal(b1-4)[Fuc(a1-3)]GlcNAc
# Method in brief: as §1
# [37] = target: GlcNAc(a1-6)Gal(b1-4)GlcNAc
# Method in brief: as §1
# [38] = target: GlcNAc(b1-2)Gal(b1-3)GalNAc
# Method in brief: as §1
# [39] = target: GlcNAc(b1-2)Man(a1-3)[GlcNAc(b1-2)Man(a1-6)]Man(b1-4)GlcNAc(b1-4)GlcNAc
# Method in brief: as §1
# [40] = target: GlcNAc(b1-2)Man(a1-3)[GlcNAc(b1-2)Man(a1-6)]Man(b1-4)GlcNAc(b1-4)[Fuc(a1-6)]GlcNAc
# Method in brief: as §1
# [41] = target: GlcNAc(b1-2)[GlcNAc(b1-4)]Man(a1-3)[GlcNAc(b1-2)Man(a1-6)]Man(b1-4)GlcNAc(b1-4)GlcNAc
# Method in brief: as §1
# [42] = target: GlcNAc(b1-3)Gal
# Method in brief: as §1
# [43] = target: GlcNAc(b1-3)Gal(b1-3)GalNAc
# Method in brief: as §1
# [44] = target: GlcNAc(b1-3)Gal(b1-4)Glc
# Method in brief: as §1
# [45] = target: GlcNAc(b1-3)Gal(b1-4)GlcNAc
# Method in brief: as §1
binder,measurement,setting,value
"Galatrox (Botrops atrox), P0DM53 (protein) NNCPQDWLPMNGLCYKIFDELKAWKDAEMFCRKYKPGCHLASIILYGESPEWAEGHSEVWLGLWDKKKDFSWEWTDR",glycan array binding signal (z-score),[1],-0.346
same,glycan array binding signal (z-score),[2],0.481
same,glycan array binding signal (z-score),[3],-0.367
same,glycan array binding signal (z-score),[4],-0.367
same,glycan array binding signal (z-score),[5],-0.357
same,glycan array binding signal (z-score),[6],-0.365
same,glycan array binding signal (z-score),[7],-0.348
same,glycan array binding signal (z-score),[8],-0.147
same,glycan array binding signal (z-score),[9],-0.355
same,glycan array binding signal (z-score),[10],-0.33
same,glycan array binding signal (z-score),[11],-0.32
same,glycan array binding signal (z-score),[12],-0.358
same,glycan array binding signal (z-score),[13],-0.356
same,glycan array binding signal (z-score),[14],-0.374
same,glycan array binding signal (z-score),[15],-0.378
same,glycan array binding signal (z-score),[16],-0.368
same,glycan array binding signal (z-score),[17],0.613
same,glycan array binding signal (z-score),[18],-0.32
same,glycan array binding signal (z-score),[19],-0.358
same,glycan array binding signal (z-score),[20],-0.266
same,glycan array binding signal (z-score),[21],-0.343
same,glycan array binding signal (z-score),[22],-0.372
same,glycan array binding signal (z-score),[23],-0.362
same,glycan array binding signal (z-score),[24],-0.365
same,glycan array binding signal (z-score),[25],-0.364
same,glycan array binding signal (z-score),[26],-0.363
same,glycan array binding signal (z-score),[27],-0.37
same,glycan array binding signal (z-score),[28],-0.355
same,glycan array binding signal (z-score),[29],-0.376
same,glycan array binding signal (z-score),[30],-0.374
same,glycan array binding signal (z-score),[31],-0.367
same,glycan array binding signal (z-score),[32],-0.359
same,glycan array binding signal (z-score),[33],-0.37
same,glycan array binding signal (z-score),[34],-0.357
same,glycan array binding signal (z-score),[35],-0.355
same,glycan array binding signal (z-score),[36],1.41
same,glycan array binding signal (z-score),[37],2.43
same,glycan array binding signal (z-score),[38],-0.358
same,glycan array binding signal (z-score),[39],-0.365
same,glycan array binding signal (z-score),[40],-0.302
same,glycan array binding signal (z-score),[41],-0.367
same,glycan array binding signal (z-score),[42],-0.369
same,glycan array binding signal (z-score),[43],-0.347
same,glycan array binding signal (z-score),[44],-0.357
same,glycan array binding signal (z-score),[45],-0.372
